Laboratory results taken from the supplement of paper PMC11417369.
Some of the results follow.

Each sequence was assayed on PfHDP1 homeodomain (GST-tagged) (assay: gcPBM binding intensity (ln(normalized median fluorescence intensity)); higher = stronger DNA binding).
In short: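 Binding of GST-tagged P. falciparum DNA-binding domains, expressed in E. coli and used at about 25 μg on average, was carried out for 1 h in 1× PBS containing 1% milk, 0.2 mg/ml BSA, 0.5% salmon testes DNA and 0.03% Triton X-100. The target was an Agilent 4 × 180k array of primer-extended double-stranded 36-bp intergenic genomic probes plus negative controls, read with Alexa488 anti-GST antibody at 488 nm. Binding intensity is the highest Masliner-normalised natural-log median intensity across replicate spots of either probe orientation.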

Sequence | gcPBM binding intensity (ln)
TATTGTAAAGTGTCATTATTACGTTATATTATATAT [CACACA_negctrl_site98] | 6.3
TATAATATAAAATATGCACACATTGGAATGGGAGAA [CACACA_site3746] | 9.33
GACAATATTAAAACATGTACATGCATTTTATGAATA [XGTACX_site553] | 6.47
TAAAAAAAAGGAAATACATGCATCTACATATATATA [TGCATGCA_site500] | 6.7
ATATAGGTAATAATAATACACACGGTGAAATATAGA [CACACA_site4040] | 6.82
AAAAAAAAAATATATATATATATATAATATATATAT [TGCATGCA_negctrl_site329] | 8.26
ATATATTTCATTTTTGTACACACAACGTTGGAGGGT [CACACA_site8999] | 6.94
AAAAACTAACTGTATTGTACTCTCTTATAAATTCAC [XGTACX_site8967] | 5.93
CTAGGAAATTATATGGGTACTCATATTCATAAAAAA [XGTACX_site1846] | 6.19
AAATATTTGGAGAAATGTACATATTATAAATATATT [XGTACX_site6885] | 6.57
AAAAAAAAAAAAAAGGTGCAAATAAATTAACCTTAT | 9.03
AAAAAAAACGCACATACACACACACCCATATATATA [CACACA_site9118] | 7.99
AAATGTTAAAATGACAGTACATATATAAAAAAAAAA [XGTACX_site3936] | 6.49
TTTTATTTTTTCCGACGTACATCCATTATATATAAT [XGTACX_site4469] | 7.2
AAAATTATTTTTATGTGTACTTATTTATTATTTATA [XGTACX_site6665] | 6.33
TTGTATTCCTTTTACAACTACCATGAAGAGAATTTT [CACACA_negctrl_site1286] | 6.33
GTCGCCAAAAGGTGTACACATAATGCATTATCATAA [CACACA_site6112] | 7.63
TAAAAAAAATAGCATACACACATATATACATATATA [CACACA_site658] | 6.3
TGATAACCTAATAATACACACACATGAATATATATA [CACACA_site8226] | 6.66
ATATTTAGGATTATCTGTACATAATATGTTTAATTA [XGTACX_site3426] | 6.37
ATTAAAAAATTATTCACACAAAATAAAAAAATGAAA [CACACA_site4918] | 6.52
TACACATAATATAATGCATGTGTGATGTATGTTTAA [TGCATGCA_site697] | 6.56
TTTTCTTTTTTTTATTGTACTTATAAAAATAAATAA [XGTACX_site3498] | 6.35

Sequence | gcPBM binding intensity (ln)
GCATATATCAAATATCGTACATTTTTTAAATTAAAA [XGTACX_site3994] | 6.28
ATAGGACATGTATCCAGTACATATTTAAAAAAAATA [XGTACX_site88] | 6.24
ATAAAATCAAAATATACACACAAGGGGGAAAATCAA [CACACA_site2809] | 6.79
TTTGTAAGTCTTTGTTGTACTCAATAGAATGAAGAA [XGTACX_site8930] | 6.46
AATTATTTACCCTATACACACAAAACCCACTAAAAA [CACACA_site4801] | 7.25
AAGAACAGAACGTACACACACATATATATATATATA [CACACA_site3457] | 9.32
AAAAAAAGAATGTGAACACACACATTGAATATAATT [CACACA_site8341] | 6.35
AATCATATGAAAAATACATGCGCATGGATACCTTTA [TGCATGCA_site224] | 8.09
TATAAATAAATACATACACACACATACATATATATA [CACACA_site9024] | 6.93
TACTTATGTGCATACCTACACACTTACATATATATA [CACACA_site2975] | 9.55
GATGATGTTTATTTGTGTACATATTAATACTTAATA [XGTACX_site1902] | 6.67
AAAAAAAAAAAGAAAGCACACAATACATATGTATAA [CACACA_site1137] | 6.5
TAAATTTTTAAATACACACATACACCCATACAGACA [CACACA_site548] | 7.18
ATATATATCAGACACACACACATGTTTTAAAACTAT [CACACA_site77] | 7.33
ACATATATATATATATATATATATATATAATATTTA [CACACA_negctrl_site633] | 7.22
ATTATGCTACAAGGAGAACACACAATTGCCACTTTT [CACACA_site8673] | 7.29
TTTTTTTTGTGGTGTCGTACATATGTTTGTTTTAAG [XGTACX_site1759] | 6.95
GGTGATAATAAGCATACACACACACCCAAAAAAAAA [CACACA_site8137] | 6.65
CCACGAGAATATATAGTGCATAATAATTTTTTTTTG | 8.82
ATATATATATTATTTCGTACATAATTATTTGCCTTA [XGTACX_site350] | 8.39
TTTTTTTTATTTTAATGTACATTTTTTATTTGTTAT [XGTACX_site7189] | 6.37
TGATACTTTTTTTGTAGTACTCCTAAAATTATAAAA [XGTACX_site4340] | 6.56
TAATAAAATATGTACGTGCACATAATTATACTAAAA | 10.5

Sequence | gcPBM binding intensity (ln)
AAAAAAAAAAAAGAAACACACATATTTATATTTATA [CACACA_site6213] | 6.12
AAAAAAAAAAAAAATTGTACAAAAAAAATAAATAAA [XGTACX_site6816] | 6.35
TTATTTTAATAACCTACACACATTTTGTATATTTTA [CACACA_site4000] | 6.27
TTATAAATATTCTTGGGTACTTAAGATGATATGTAA [XGTACX_site5496] | 6.2
AAATGATGGAAAAAATAAATTTTTGTACAAAAATTA [CACACA_negctrl_site814] | 6.44
TATATATATATATATATAATACGAATTTGTAGTACA [TGCATGCA_negctrl_site224] | 9.29
ATGTTTTTAAAAAATTGTACATAATATTTTTTATAA [XGTACX_site7692] | 6.38
AAAATAATGTATATATGTACATATAAATATATATAT [XGTACX_site8081] | 7.96
TTGTATATTTTATGTACACACAATAAGTTAATATAA [CACACA_site4655] | 6.72
TTTTTCTATAAAAAAAAAAAAAAAAAATATATATAT [TGCATGCA_negctrl_site535] | 8.02
ATAAAAGGAAGAAAATGTACATATAATTATATGCAT [XGTACX_site8421] | 6.71
TATTATTGCATATTTACACACGTACTAATTTAAACA [CACACA_site970] | 7.87
TGTATACTATTAAATTGTACACATAAGAAATATTAT [XGTACX_site5839] | 6.58
TTTTACAAATATAATGGGTGAGCTATCAAAATAAAT [GTGCAC_negctrl_site91] | 6.63
TTTAAAAAGATATATACACACATATAAATAAATATA [CACACA_site6436] | 6.47
ACACATACACATTAGGTGCATATATTTCAATATTAC [GTGCAC_site9423] | 9.83
ATTATATTTTTAAGTACACACATATATATATATATA [CACACA_site5925] | 9.27
AGCCTCGGGGTCATATATATATATATATATATATAT [CACACA_negctrl_site512] | 9.56
CCACGTATAATATGTACACACACATATATACAAAAA [CACACA_site8208] | 6.7
ATAAAAATCATGTTGGTGCGAAATTTTATTATCAGA [GTGCAC_site9735] | 7.07
ATATTAATTCGTTTTGTACACACATAATGAATAATT [CACACA_site8701] | 6.42
AATTATTTACCCTATACACACAAAACAGACTAAAAA [CACACA_site6688] | 6.76
TTATGTATAAACACACGTACACACACTAAGTATATC [XGTACX_site3254] | 6.72

Sequence | gcPBM binding intensity (ln)
AAGGTATGATTAATCACACACATAAATATATATACA [CACACA_site2658] | 6.67
AAAAAATAAATAAATAGTACTTTAAAAGAAAAAAAA [XGTACX_site5051] | 6.19
AAATAAAAAATGGAAATCTTAACAAGAATCATTAAC [CACACA_negctrl_site1626] | 6.1
TATATACAGAATATATGTACATATTCATTTTATATT [XGTACX_site5139] | 6.4
TTGTTTAACTTGTTAAATATAATGTATCTGTGGATA [GTGCAC_negctrl_site108] | 6.14
AAAGAAAACCAAGTGGTGCATTTTCGTTACTTCATC | 9.95
CAATGTTACTATAATACACACAATATGTATTTGTCT [CACACA_site6668] | 6.7
AATATATATACTTTTTTTTTTTTTTTTTTTTTTTTT [CACACA_negctrl_site520] | 7.19
TTTAGCACAAACAAAAAAAAAATAGAAAAAAATATA [CACACA_negctrl_site1772] | 6.48
TATGTTTACATATACGTGCACATGAATGTATACATT [GTGCAC_site9894] | 9.57
ACAAATTGTTAAAGGTGTACAATACATATATAAGAA [XGTACX_site4906] | 7.43
AATAATTGTTATAGTTGTACAATACATATATTACAA [XGTACX_site30] | 6.41
CCTTTCTATTGAAAATGTACATATATATTATTATAT [XGTACX_site5527] | 6.51
AATAATTGTAGACATGCACACACAAATATTATATAT [CACACA_site8181] | 8.3
TGTATATATAAAAATATACACACTGTATTATTGTAA [CACACA_site3757] | 6.31
CATATTTTGAACTTCACACATATATATATATATATA [CACACA_site4228] | 9.42
GGTAGATTATTATTAACGAAAAATGTTTTTAACATA [GTGCAC_negctrl_site216] | 6.24
TCATAAATTAAACACACACACACATCTGGATACCCC [CACACA_site9096] | 7.12
ATATATTTTTTTTAGCGTACATGCAAAAAAAAAAAA [XGTACX_site4590] | 6.44
TTTTGTTGTTGTTGTTGTACATAAATAATAAAATAT [XGTACX_site8681] | 6.55
